According to patent US11285169B2, “Methods for modulating chemotherapeutic cytotoxicity” (The United States of America, as represented by the …, priority 2013, dated 2022):

Assays:
WT Jurkat cells [1] = assay: cells; settings: Homo sapiens, 48 h, read-out: AC50 (μM) WT
[2] = tested on: CD47 deficient (CD47 KO) Jurkat T cells; settings: for cytotoxicity in CD47 deficient versus wild-type Jurkat cells (FIGS. 14, 15): increasing concentrations
[3] = tested on: CD47 deficient (CD47 KO) Jurkat T cells; assay: cells; settings: Homo sapiens, 48 h, read-out: AC50 (μM) CD47 KO
WT Jurkat cells [4] = tested on: WT Jurkat cells
[5] = CD47 KO Jurkat T cells, 48 hours, 10^-9 to 10^-4 M, CellTiter-Glo
[6] = log AC50 difference CD47 KO minus WT
[7] = WT Jurkat cells, 48 hours, 10^-9 to 10^-4 M, CellTiter-Glo

| SMILES | AC50 (WT Jurkat cells [1]) [µM] | Maximal Response CD47 KO (RLU) [2, 5] [RLU] | Δ LogAC50 CD47KO-WT [2, 6] | AC50 [3] [µM] | Maximal Response WT (RLU) (WT Jurkat cells [4]; [7]) | cytotoxicity in CD47 deficient versus wild-type Jurkat cells (FIGS. 14, 15) ([2]; 48 hours) | inhibitory potency (AC50), CD47-deficient versus WT Jurkat T cells (in words) ([2]; 48 hours) | maximal inhibition of viability, CD47-deficient versus WT Jurkat T cells (in words) ([2]; 48 hours) | Maximal Response CD47 KO (RLU) [2] [RLU] | Δ LogAC50 CD47KO-WT [2] | Maximal Response WT (RLU) (WT Jurkat cells [4]) | sensitivity of CD47-expressing versus deficient Jurkat T cells ([2]; 48 hours) |
| --- | --- | --- | --- | --- | --- | --- | --- | --- | --- | --- | --- | --- |
| CN(C)CC[C@H](CSc1ccccc1)Nc1ccc(S(=O)(=O)NC(=O)c2ccc(N3CCN(Cc4ccccc4-c4ccc(Cl)cc4)CC3)cc2)cc1[N+](=O)[O-] [ABT-737] | 1.87 | 29.852 | 0.9 | 14.8 | 1.054 | – | – | – | – | – | – | – |
| CC[C@@]1(O)C(=O)OCc2c1cc1n(c2=O)Cc2cc3ccccc3nc2-1 [Camptothecin] | 0.0094 | 37.178 | 1.3 | 0.186 | 9.64 | protected | – | – | – | – | – | – |
| Nc1nc(Cl)nc2c1ncn2[C@H]1C[C@H](O)[C@@H](CO)O1 [Cladribine] | 0.148 | 59.738 | 0.85 | 1.05 | 21.67 | – | significant decrease in inhibitory potency | significantly decreased maximal inhibition of viability | – | – | – | – |
| N=c1ccn2c(n1)O[C@H]1[C@H](O)[C@@H](CO)O[C@H]12 [Cyclocytidine HCl] | 0.235 | 59.998 | 0.7 | 1.18 | 9.572 | – | – | – | – | – | – | – |
| C=C1[C@H](CO)[C@@H](O)C[C@@H]1n1cnc2c(=O)[nH]c(N)nc21 [Entecavir] | 0.332 | 63.062 | – | 4.69 | 7.89 | – | – | – | – | – | – | – |
| Nc1ccn([C@@H]2O[C@H](CO)[C@@H](O)C2(F)F)c(=O)n1 [Gemcitabine] | 0.0526 | 43.326 | 0.55 | 0.186 | 10.147 | – | significant decrease in inhibitory potency | significantly decreased maximal inhibition of viability | – | – | – | – |
| COc1ccc(S(=O)(=O)N(C(C)=O)c2ccccc2/C=C/c2cc[n+]([O-])cc2)cc1 [IVX-214] | 0.469 | – | – | 1.48 | – | – | – | – | 32.053 | 0.5 | 8.077 | – |
| CCc1c2c(nc3ccc(OC(=O)N4CCC(N5CCCCC5)CC4)cc13)-c1cc3c(c(=O)n1C2)COC(=O)[C@]3(O)CC [Irinotecan] | 0.332 | 40.251 | 0.75 | 1.87 | 15.402 | – | – | – | – | – | – | – |
| COc1cc2nccc(Oc3ccc(NC(=O)NC4CC4)c(Cl)c3)c2cc1C(N)=O [Lenvatinib] | 2.64 | 51.428 | 0.8 | 16.6 | 5.012 | – | – | – | – | – | – | – |
| N[C@@H](Cc1ccc(N(CCCl)CCCl)cc1)C(=O)O [Melphalan] | 1.48 | – | – | 23.5 | – | – | – | – | – | 1.2 | – | – |
| O=C1c2c(O)ccc(O)c2C(=O)c2c(NCCNCCO)ccc(NCCNCCO)c21 [Mitoxantrone] | 0.166 | – | 1.05 | 1.87 | – | – | – | – | – | – | – | – |
| COc1ccc(-c2ccc3ncc4c(c3c2)n(-c2ccc(N3CCNCC3)c(C(F)(F)F)c2)c(=O)n4C)cn1 [NVP-BGT226] | 0.0662 | – | 0.9 | 0.526 | – | – | – | – | – | – | – | – |
| Cc1c(C(=O)Nc2ccc(N3C[C@@H](C)O[C@@H](C)C3)nc2)cccc1-c1ccc(OC(F)(F)F)cc1 [NVP-LDE-225] | 3.72 | – | 0.7 | 18.7 | – | – | – | – | – | – | – | – |
| CC1(C)CCC(c2ccc(Cl)cc2)=C(CN2CCN(c3ccc(C(=O)NS(=O)(=O)c4ccc(N[C@H](CCN5CCOCC5)CSc5ccccc5)c(S(=O)(=O)C(F)(F)F)c4)cc3)CC2)C1 [Navitoclax] | 0.235 | – | 1.4 | 5.9 | – | – | – | – | – | – | – | – |
| COC1=CC(c2cc3ccccc3[nH]2)=N/C1=C\c1[nH]c(C)cc1C [Obatoclax] | 0.372 | – | 0.6 | 1.48 | – | – | – | – | – | – | – | – |
| Cc1[nH]c(/C=C2\C(=O)Nc3ccccc32)c(C)c1CCC(=O)O [Orantinib] | 1.48 | 36.73 | 1.05 | 16.6 | 6.657 | – | – | – | – | – | – | – |
| CCCOc1ccc2nc(NC(=O)OC)[nH]c2c1 [Oxibendazole] | 0.0053 | – | 2.05 | 0.59 | – | – | – | – | – | – | – | – |
| COc1cccc2c1C(=O)c1c(O)c3c(c(O)c1C2=O)C[C@@](O)(C(=O)CO)C[C@@H]3O[C@H]1C[C@H](N)[C@H](O[C@@H]2CCCCO2)[C@H](C)O1 [Pirarubicin] | 1.48 | 26.932 | 0.95 | 13.2 | 4.326 | protected | – | – | – | – | – | – |
| CC(C)(C)c1[nH]cnc1/C=c1\[nH]c(=O)/c(=C/c2ccccc2)[nH]c1=O [Plinabulin] | 0.191 | – | 1.05 | 2.15 | – | – | – | – | – | – | – | – |
| CO[C@H]1[C@H](O)[C@@H](O)[C@H](n2c3c(Cl)cccc3c3c4c(c5c6cccc(Cl)c6[nH]c5c32)C(=O)NC4=O)O[C@@H]1CO [Rebeccamycin] | 0.148 | 41.489 | 0.7 | 0.743 | 12.004 | – | – | – | – | – | – | – |
| Cc1cc(O)c2c3c4c(cc(O)c13)C(C)(C)C(=O)c1c(O)cc(O)c(c1-4)C2=O [Resistomycin] | 1.18 | – | 0.6 | 4.69 | – | – | – | – | – | – | – | – |
| COc1cc([C@@H]2c3cc4c(cc3[C@@H](O[C@@H]3O[C@@H]5CO[C@@H](c6cccs6)O[C@H]5[C@H](O)[C@H]3O)[C@H]3COC(=O)[C@H]23)OCO4)cc(OC)c1O [Teniposide] | 0.166 | – | 1.4 | 4.18 | – | – | – | – | – | – | – | – |
| CC[C@@]1(O)C(=O)OCc2c1cc1n(c2=O)Cc2cc3c(CN(C)C)c(O)ccc3nc2-1 [Topotecan hydrochloride] | 0.0418 | 30.703 | 1.7 | 2.09 | 8.516 | – | – | – | – | – | – | – |
| COC(=O)c1ccc2c(c1)NC(=O)/C2=C(\Nc1ccc(N(C)C(=O)CN2CCN(C)CC2)cc1)c1ccccc1 [Vargatef] | 3.32 | 50.125 | 0.65 | 14.8 | 12.253 | – | – | – | – | – | – | – |
| CCC1=C[C@@H]2CN(C1)Cc1c([nH]c3ccccc13)[C@@](C(=O)OC)(c1cc3c(cc1OC)N(C)[C@H]1[C@@](O)(C(=O)OC)[C@H](OC(C)=O)[C@]4(CC)C=CCN5CC[C@]31[C@@H]54)C2 [Vinorelbine] | 0.0066 | – | 0.5 | 0.0209 | – | – | – | – | – | – | – | differing sensitivities |
| CC[C@@H]1C(=O)N(C)c2cnc(Nc3ccc(C(=O)N[C@H]4CC[C@H](N5CCN(CC6CC6)CC5)CC4)cc3OC)nc2N1C(C)C [Volasertib] | 0.0662 | – | 0.7 | 0.332 | – | – | – | – | – | – | – | – |
| CN[C@H]1CN(c2ccc3c(=O)c(C(=O)O)cn(-c4nccs4)c3n2)C[C@@H]1OC [Vosaroxin] | 1.15 | – | 1.05 | 12.9 | – | – | – | – | – | – | – | – |
| COc1cc2c(Nc3ccc(Cl)c(Cl)c3F)ncnc2cc1OC[C@@H]1C[C@@H]2CN(C)C[C@@H]2C1 [XL-647] | 3.72 | – | 0.5 | 11.8 | – | – | – | – | – | – | – | – |

Structures can show the parent of a compound that is named as a salt. Where two headings read alike, the source gives them in different places.
